In the supplement of paper PMC12645437, “Orthogonal IMiD-Degron Pairs Induce Selective Protein Degradation in Cells” (ACS Chemical Biology, 2025):
The list shows a part of the results.

molecular target: no compound (DMSO); test: log2 fold change of degron read counts, EGFP-low vs EGFP+ sorted cells; higher = lower degron-EGFP level without compound (poor expression or instability); details: compound: DMSO control; 18 h
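Further: jurkat cells carrying a lentiviral library of mutant zinc finger degrons fused to EGFP plus mCherry, mCherry+ cells FACS sorted, degron abundance counted by next-generation sequencing.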

FICDICGASFTQKGNLLRHIKL was tested. Which “log2 fold change of degron read counts” value did it give?
The value was -1.98.

For FACEICGACFTQKGNLLRHIKL, which “log2 fold change of degron read counts” value is on record?
Its value is -1.34.

How did the “log2 fold change of degron read counts” value turn out when FHCNICGAFFTQKGNLLRHIKL was run?
Its value is 0.265.

How did the “log2 fold change of degron read counts” value turn out when FRCEICGRSFTQKGNLLRHIKL was run?
Its value is -1.26.

FQCNQCGHYFTQKGNLLRHIKL was tested. Which “log2 fold change of degron read counts” value did it give?
Its value is -0.49.

With LGCNQCGFQCTQKGNLLRHIKL as the sequence, how does the “log2 fold change of degron read counts” value read?
The value was 0.696.

With FRCNQCGREFTQKGNLLRHIKL as the sequence, how does the “log2 fold change of degron read counts” value read?
Its value is -2.

How did the “log2 fold change of degron read counts” value turn out when FHCEICGATFTQKGNLLRHIKL was run?
Its value is -1.85.

For LICEICGFWCTQKGNLLRHIKL, which “log2 fold change of degron read counts” value is on record?
Its value is 1.21.

With FKCEICGRPFTQKGNLLRHIKL as the sequence, how does the “log2 fold change of degron read counts” value read?
The value was -1.01.

With FSCNQCGHHFTQKGNLLRHIKL as the sequence, how does the “log2 fold change of degron read counts” value read?
Its value is 0.487.

How did the “log2 fold change of degron read counts” value turn out when FQCDICGAAFTQKGNLLRHIKL was run?
The value was -1.02.

With FGCEICGHAFTQKGNLLRHIKL as the sequence, how does the “log2 fold change of degron read counts” value read?
Its value is -0.469.

Which “log2 fold change of degron read counts” value does the source give for FHCEQCGAQFTQKGNLLRHIKL here?
The value was -1.73.

Which “log2 fold change of degron read counts” value does the source give for FGCNVCGAIFTQKGNLLRHIKL here?
The value was 0.899.

FECPICGRGFTQKGNLLRHIKL was tested. Which “log2 fold change of degron read counts” value did it give?
Its value is -0.4.

For FQCDICGAGFTQKGNLLRHIKL, which “log2 fold change of degron read counts” value is on record?
The value was -2.2.

FFCPQCGAEFTQKGNLLRHIKL was tested. Which “log2 fold change of degron read counts” value did it give?
The value was -1.61.

FNCDQCGAFFTQKGNLLRHIKL was tested. Which “log2 fold change of degron read counts” value did it give?
Its value is -0.394.

Which “log2 fold change of degron read counts” value does the source give for FRCEICGHYFTQKGNLLRHIKL here?
The value was -0.96.

Which “log2 fold change of degron read counts” value does the source give for FNCNQCGHAFTQKGNLLRHIKL here?
The value was 0.702.

LRCEICGFACTQKGNLLRHIKL was tested. Which “log2 fold change of degron read counts” value did it give?
Its value is 0.293.

LVCEICGFYCTQKGNLLRHIKL was tested. Which “log2 fold change of degron read counts” value did it give?
The value was 0.566.

FECNQCGHAFTQKGNLLRHIKL was tested. Which “log2 fold change of degron read counts” value did it give?
Its value is -1.71.

Which “log2 fold change of degron read counts” value does the source give for FKCPICGACFTQKGNLLRHIKL here?
Its value is -0.44.

Which “log2 fold change of degron read counts” value does the source give for FGCSVCGHYFTQKGNLLRHIKL here?
The value was 1.13.

For FTCNQCGATFTQKGNLLRHIKL, which “log2 fold change of degron read counts” value is on record?
Its value is -1.32.

For FYCNQCGRVFTQKGNLLRHIKL, which “log2 fold change of degron read counts” value is on record?
Its value is 0.655.

For LICNQCGFACTQKGNLLRHIKL, which “log2 fold change of degron read counts” value is on record?
Its value is 0.365.

FWCDQCGAPFTQKGNLLRHIKL was tested. Which “log2 fold change of degron read counts” value did it give?
Its value is -0.384.

How did the “log2 fold change of degron read counts” value turn out when FICNVCGACFTQKGNLLRHIKL was run?
The value was 0.199.

For FVCEQCGAIFTQKGNLLRHIKL, which “log2 fold change of degron read counts” value is on record?
Its value is -0.738.

How did the “log2 fold change of degron read counts” value turn out when FDCEICGHGFTQKGNLLRHIKL was run?
Its value is -0.622.

Which “log2 fold change of degron read counts” value does the source give for FVCNQCGRMFTQKGNLLRHIKL here?
Its value is -0.397.

For FWCPQCGAPFTQKGNLLRHIKL, which “log2 fold change of degron read counts” value is on record?
Its value is 0.609.

For FICDICGANFTQKGNLLRHIKL, which “log2 fold change of degron read counts” value is on record?
The value was -1.41.

With FDCEICGRVFTQKGNLLRHIKL as the sequence, how does the “log2 fold change of degron read counts” value read?
Its value is -1.35.

With FKCPVCGANFTQKGNLLRHIKL as the sequence, how does the “log2 fold change of degron read counts” value read?
The value was -0.248.

With FMCPICGAMFTQKGNLLRHIKL as the sequence, how does the “log2 fold change of degron read counts” value read?
The value was 0.253.

Which “log2 fold change of degron read counts” value does the source give for FRCPICGATFTQKGNLLRHIKL here?
The value was -0.363.

For FGCDVCGALFTQKGNLLRHIKL, which “log2 fold change of degron read counts” value is on record?
Its value is -1.04.

FYCDQCGAEFTQKGNLLRHIKL was tested. Which “log2 fold change of degron read counts” value did it give?
Its value is -1.43.

How did the “log2 fold change of degron read counts” value turn out when FGCPQCGACFTQKGNLLRHIKL was run?
The value was -0.911.

With FLCEICGHCFTQKGNLLRHIKL as the sequence, how does the “log2 fold change of degron read counts” value read?
The value was -1.34.

With LSCEICGFRCTQKGNLLRHIKL as the sequence, how does the “log2 fold change of degron read counts” value read?
The value was -0.119.

With FGCNICGADFTQKGNLLRHIKL as the sequence, how does the “log2 fold change of degron read counts” value read?
Its value is 0.0669.

With FTCDQCGACFTQKGNLLRHIKL as the sequence, how does the “log2 fold change of degron read counts” value read?
Its value is -1.17.

Which “log2 fold change of degron read counts” value does the source give for FICEICGRQFTQKGNLLRHIKL here?
Its value is -0.902.

Which “log2 fold change of degron read counts” value does the source give for FYCDVCGAKFTQKGNLLRHIKL here?
The value was -1.04.

With FACNVCGAFFTQKGNLLRHIKL as the sequence, how does the “log2 fold change of degron read counts” value read?
Its value is -0.0174.
